The campaign covered roughly 48,000 compounds. About 1,200 (2.5%) were called active. Inconclusive results (about 2%) are left out.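 How the source made its calls: active means activation of at least 60% and not above a set upper limit (about 1 call in 100 departs from these limits); inconclusive means activation of 40% to 60%, or above that upper limit; inactive means activation under 40%.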 The list shows a part of the results.

The target of the assay is Probable G-protein coupled receptor 32 (Homo sapiens) (UniProt O75388). The assay can be described thus: qHTS for Agonists of Human Resolvin D1 Receptor DRV1. The following applies: CHO-K1 GPR32 beta-arrestin PathHunter luminescence, 90 min; at 76.9 µM; stronger effect = higher value; zero percent set by DMSO-only wells. The procedure, abridged: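 PathHunter enzyme-fragment complementation, CHO-K1 GPR32 stable line; 2,500 cells/well, overnight attach; cpd 90 min 37 °C 5% CO2; detection reagent 1 h RT; chemiluminescence. DMSO = EC0.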
UniProt O75388, sequence (O75388 whole entry, looked up, the tested form may be a part): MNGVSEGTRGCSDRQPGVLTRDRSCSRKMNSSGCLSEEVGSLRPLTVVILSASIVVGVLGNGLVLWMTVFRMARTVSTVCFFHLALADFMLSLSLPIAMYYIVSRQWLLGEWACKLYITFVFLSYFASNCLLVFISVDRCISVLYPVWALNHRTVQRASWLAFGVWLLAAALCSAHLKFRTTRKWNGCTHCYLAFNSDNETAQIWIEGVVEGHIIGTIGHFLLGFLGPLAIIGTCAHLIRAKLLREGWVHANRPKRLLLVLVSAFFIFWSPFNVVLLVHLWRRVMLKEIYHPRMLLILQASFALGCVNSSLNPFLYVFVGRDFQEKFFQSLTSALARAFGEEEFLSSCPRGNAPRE
As to `CCOc1cc(C(=O)N2CC(=O)Nc3ccc(F)cc3C2c2ccccc2)cc(OCC)c1OCC` (centres undefined), the activation was inactive: 3.72%.

With `COc1cc2nc(NCCc3ccc(Cl)cc3)n3nc(-c4ccccc4)nc3c2cc1OC`, the activation was inactive: 10.2%. As to `CC(C)OCCCNC(=O)Cn1c(-c2cccs2)cc2cc(F)ccc21`, the activation is inactive: 16.3%. In the case of `COc1ccc(N2CCN(CCCNC(=O)c3sc4ncccc4c3-n3cccc3)CC2)cc1`, the activation is inactive: -14.9%. As to `CCN(C(=O)c1nn(C)c2c1CSc1ccccc1-2)c1cccc(C)c1`, the activation was inactive: -12%. For the compound `COc1ccc(NC(=O)Cn2nc(C)c3c(C)n(-c4ccccc4)nc3c2=O)cc1OC`, the activation was inactive: -7.49%. The figure for `COc1cc(C(=O)OCc2cc(=O)n3ccsc3n2)cc(OC)c1OC` is inactive: 6.08%; for `CCCCCCCCCCCCCCCC(=O)OC(C)C` it is inactive: -2.22%; for `COc1ccc(S(=O)(=O)NCC(c2ccco2)S(=O)(=O)c2cccs2)cc1OC` (centres undefined) it is inactive: -20.9%. As for `CCOc1cc(-c2cc(C(=O)O)c3c(-c4ccccc4)[nH]nc3n2)ccc1O`, the figure is inactive: -23.9%.

Regarding `NNCCc1ccccc1`, the activation is inactive: 1.11%. The figure for `Cc1c(Cl)cccc1NC(=O)CCS(=O)(=O)c1cccc2nsnc12` is inactive: 3.12%.

Consider `COc1ccc(OC)c(S(=O)(=O)NCCc2sc(C)nc2C)c1`, for which the activation was inactive: -4.94%. The figure for `CCCCNC(=O)c1ccc(-c2nc(CN3CCc4ccccc43)c(C)o2)cc1` is inactive: -6.48%; for `Cc1ccc(CNC(=O)CCN2C(=O)C(C)Oc3ccc(C)cc32)cc1` (centres undefined) it is inactive: 23.9%; for `CCc1ccc(-c2nc3cc(NC(=O)c4ccc(F)cc4)ccc3o2)cc1` it is inactive: 21.6%. As for `Cc1ccc(Nc2c3c(nc4ccccc24)CCC3)cc1F`, the figure is inactive: -24.4%; as for `Cc1cccc(COc2ccc(-c3cc(C(F)(F)F)n4nc(C)cc4n3)cc2)c1`, inactive: 18.6%; as for `Cc1cn2c(=O)cc(COC(=O)COc3ccc(F)cc3)nc2s1`, inactive: 8.8%.

`COc1cccc(-c2nn(C)c3sc(C(=O)N4CCN(c5cccc(C(F)(F)F)c5)CC4)cc23)c1`: the activation is inactive: -0.7%. With `COc1ccccc1N(CC(=O)NCCSc1ccccc1)S(=O)(=O)c1ccc(C)cc1`, the activation is inactive: -24.3%.

For the compound `Cc1ccc(NC(=O)CCNS(=O)(=O)c2cccs2)cc1F`, the activation is inactive: 16.1%. As for `COc1cccc(CCNC(=O)c2cnc3sc(N4CCCC4)nn3c2=O)c1`, the figure is inactive: -2.31%; as for `Cc1cccc(-n2c3nc(=O)n(C)c(=O)c-3cc3c(C)nn(-c4ccccc4)c32)c1C`, inactive: -3.16%; as for `COc1ccc(-n2c(=O)c3c(c4cc(OC)ccc4n3C)n(Cc3c(F)cccc3Cl)c2=O)cc1`, inactive: -4.45%. As for `CSc1ncc2c(n1)-c1ccccc1N(Cc1ccccc1C)S2(=O)=O`, the figure is inactive: 42.3%; as for `COC1(C(F)(F)F)NC(=O)N(c2ccc(F)cc2)C1=O` (centres undefined), inactive: -9.25%; as for `CCOC(=O)C1=C(CN(CC)Cc2ccccc2)NC(=O)NC1c1ccc(Cl)cc1` (centres undefined), inactive: -12.1%. Regarding `COc1ccc(NC(=O)N2CCC(n3c(C)nc4cccnc43)CC2)cc1OC`, the activation was inactive: -16.3%. Regarding `Cc1ccc(OCCSc2nc3ccc(NC(=O)COc4ccc(C)cc4)cc3s2)cc1`, the activation was inactive: -2.38%. The figure for `CCOC(=O)c1cnn(-c2cccc(Cl)c2)c1C1CCN(C(=O)OC(C)(C)C)CC1` is inactive: -21.7%; for `CSc1nc2sc3c(c2c(=O)n1-c1ccc(C)cc1)CCCC3` it is inactive: -7.11%; for `COc1ccc(Cl)cc1NC(=O)N1CCC2(CC1)Oc1ccccc1C(=O)N2Cc1ccc(F)cc1` it is inactive: -9.45%. As for `CC1CCc2c(sc3nnn(CC(=O)Nc4ccccc4Cl)c(=O)c23)C1` (centres undefined), the figure is inactive: 9.59%; as for `Fc1ccc(NCc2nc3ccccc3n2CCOc2ccccc2Cl)cc1`, inactive: -4.41%. As to `Cc1ccc(CNS(=O)(=O)c2ccc(C(=O)N(C)C)s2)cc1`, the activation was inactive: -6.72%. As for `CCOc1ccc(NC(=O)Cn2c(=O)n(Cc3ccc4c(c3)OCO4)c(=O)c3ccc(C(=O)NC4CCCCC4)cc32)cc1`, the figure is inactive: -7.54%. The figure for `COc1ccc(Nc2c3c(nc4ccccc24)CCC3)cc1Cl` is inactive: -14.1%; for `Cc1cccc(NC(=O)Cn2c(=O)n(Cc3ccc4c(c3)OCO4)c(=O)c3oc4ccccc4c32)c1C` it is inactive: -15.8%.

As to `Cc1ccc(CN(C(=O)COc2ccccc2Cl)c2ccccn2)o1`, the activation is inactive: -8.57%. As for `COc1ccc(OC)c(CNC(=O)Nc2cn(CC(C)C)c(=O)c3ccccc23)c1`, the figure is inactive: -27.9%. As for `CCC(=O)N1c2ccc(S(=O)(=O)CCC(=O)NCc3ccccc3OC)cc2CC1C` (centres undefined), the figure is inactive: 6.1%. The figure for `CC(C)(C)C1CCc2c(sc(NC(=O)C3c4ccccc4Oc4ccccc43)c2C(N)=O)C1` (centres undefined) is inactive: -12%; for `CCn1cc(S(=O)(=O)c2cc(C)cc(C)c2)c(=O)c2cc(F)c(N3CCCCC3)cc21` it is inactive: -16.4%; for `CCCCn1c(CNC(=O)C23CC4CC(CC(C4)C2)C3)nnc1SCC(=O)Nc1ccc(C)cc1` it is inactive: 41.2%. Consider `COCCSc1nc2c([nH]c3ccccc32)c(=O)n1-c1ccc(OC)c(OC)c1`, for which the activation was inactive: -6.11%. As for `CC1CCCCN1Cc1c(O)ccc2c(=O)c(-c3ccccc3Cl)c(C(F)(F)F)oc12` (centres undefined), the figure is inactive: -7.86%. The figure for `Cc1ccc(CNC(=O)Nc2cc(C(=O)NCc3cccc(F)c3)ccc2N2CCCC2)cc1` is inactive: -32.8%; for `CC(=O)N1CCc2cc(Br)cc(S(=O)(=O)N3CCC(C(=O)Nc4cccc(C)c4C)CC3)c21` it is inactive: -0.521%; for `COC(=O)c1nnn(CC(=O)NC(=O)Nc2ccc(F)cc2)c1C(=O)OC` it is inactive: 20.9%. As for `O=C(Nc1ccc(S(=O)(=O)N2CCC(c3nc4ccccc4s3)CC2)cc1)c1ccccc1`, the figure is inactive: 0.592%. `Cc1ccc(C2CC(=O)Nc3cc4c(cc32)OCCO4)cc1Br` (centres undefined): the activation was inactive: -8.13%. The figure for `Fc1ccccc1-c1nc(N2CCN(c3cccc(Cl)c3)CC2)c2ccccc2n1` is inactive: -27.4%; for `CCOc1ccc(CCNC(=O)c2cc(=O)[nH]c3ccc(S(=O)(=O)N4CCCCC4C)cc23)cc1OCC` (centres undefined) it is inactive: -23.6%.

As for `Cc1ccc(-c2noc(CCC(=O)N(C)c3ccccc3F)n2)cc1`, the activation is inactive: -5.22%. Take `CCOC(=O)N1CCC(n2c(=O)[nH]c3cc(Cl)ccc32)CC1`: the activation was active: 72.2%. As for `CCn1c(=O)c2c(nc3n2CCN3c2ccc(OC)cc2)n(C)c1=O`, the figure is inactive: -12.1%; as for `COCCNC(=O)Cn1ccc2cc(S(=O)(=O)N3CCCCCC3)ccc21`, inactive: 0.386%. As for `Cc1ccc([N+](=O)[O-])cc1S(=O)(=O)N(C)C`, the figure is inactive: 6.08%; as for `Cc1ccc(-c2cc(C(=O)N3CCN(S(=O)(=O)c4ccc(Br)cc4)CC3)[nH]n2)c(C)c1`, inactive: -13.4%. The figure for `CC(C)OCCCn1c(=O)c2ccccc2n2c(-c3ccccc3)nnc12` is inactive: 12.1%; for `CC(C)(C)C1CCc2c(sc(NC(=O)c3cccc(Cl)c3)c2C(=O)NCc2ccco2)C1` (centres undefined) it is inactive: 15.4%; for `CC(=O)c1ccc(NC(=O)C2CCN(c3nnc(C)c4c(C)n(-c5ccccc5)nc34)CC2)cc1` it is inactive: -6.59%.

Regarding `CCc1nn2c(=O)cc(COC(=O)Cc3ccccc3)nc2s1`, the activation is inactive: -14.5%. As for `O=C(Cc1ccccc1)Nc1sc2c(c1C(=O)Nc1cccc(Cl)c1)CCCCC2`, the figure is inactive: 29%; as for `COc1ccc(NCc2cccn2-c2nnc(N3CCCCCC3)s2)cc1`, inactive: 14.4%; as for `O=C(NCc1ccco1)c1ccc(Cn2c(SCc3ccccc3)nc3cccnc32)cc1`, inactive: 8.02%. The figure for `COc1cc(OC)c(NC(=O)CCS(=O)(=O)c2ccc3c(c2)oc(=O)n3C)cc1Cl` is inactive: 8.16%; for `COc1ccc(NC(=O)CSC2=Nc3ccccc3C3=NC(CC(=O)NCCc4ccccc4)C(=O)N23)cc1` (centres undefined) it is inactive: -16.9%; for `CC(C)CCOc1ccc(Cn2c(=O)oc3ccccc32)cc1` it is inactive: 29.6%. In the case of `Cc1ccc(S(=O)(=O)c2cn(Cc3ccccc3)c3cc(N4CCCCC4)c(F)cc3c2=O)cc1`, the activation was inactive: -5.3%. Turning to `COc1ccc(-c2noc(-c3ccc(N4CCOCC4)c([N+](=O)[O-])c3)n2)cc1`, the activation was inactive: -10.2%. Regarding `CCc1ccc(CNC(=O)C2COc3ccc(OC)cc3C2)cc1` (centres undefined), the activation is inactive: 0.887%. The figure for `CN(Cc1ccccc1)C(=O)CSc1nnc(-c2cccc(Cl)c2)o1` is inactive: 16.4%; for `CCOC(=O)c1c(C)sc(-c2c(-c3ccccc3)[nH]c3[nH]c(=O)[nH]c(=O)c23)c1O` it is inactive: -11.5%; for `CC1=C(C(=O)Nc2ccccc2C)C(c2cccs2)n2nc(SCc3ccccc3)nc2N1` (centres undefined) it is inactive: -8.71%.

Regarding `CCc1ccc(S(=O)(=O)NCc2ccc3c(c2)CCN3C(=O)c2ccc(C)cc2)cc1`, the activation is inactive: -31.1%. The figure for `CCc1ccc(-n2nc(CO)c(C(=O)NCCOC)n2)cc1` is inactive: 8.72%. Regarding `O=C(Cn1ncc2c(Cl)cccc21)NCc1cccc(Cl)c1`, the activation was inactive: -9.26%.

Turning to `COc1ccc(OC)c(S(=O)(=O)N2CCC(n3c(C)nc4cccnc43)CC2)c1`, the activation is active: 64.7%. As for `CN(C(=O)CC(=O)Nc1ccc2nc3n(c(=O)c2c1)CCCCC3)c1ccccc1F`, the figure is inactive: 0.997%. With `CCc1ccc(-n2nc(C)c3c(C(=O)N4CCN(c5ccccc5)CC4)cc(C)nc32)cc1`, the activation was inactive: -7.97%. As to `CCC(=O)O[C@]1(C(=O)CCl)[C@@H](C)C[C@H]2[C@@H]3CCC4=CC(=O)C=C[C@]4(C)[C@@]3(F)[C@@H](O)C[C@@]21C`, the activation is inactive: -9.23%. With `COc1ccc(-c2noc(-c3ccc(N4CCCC4)c([N+](=O)[O-])c3)n2)cc1OC`, the activation was inactive: 10.5%.

The record behind these values is PubChem BioAssay AID1346428 (National Center for Advancing Translational Sciences (NCATS), 2018).
